In all, about 350,000 compounds went through this assay and about 9,900 (2.8%) were called active. The inconclusive results got no clear call from the source; some entries with a clear call stand among them for comparison. Calls come from the whole dose curve; as a rule, active = well fitted activation curve with a large enough effect; inconclusive = small, poorly fitted or top-dose-only effect; inactive = no such curve, though single readings can be large or run the other way. Potencies of inconclusive entries are left out as doubtful fits.
Assay: A quantitative high throughput screen for small molecules that induce DNA re-replication in MCF 10a normal breast cells. For activity, positive = re-replication: % of control where 0% means no effect. Note: nearly all actives have a fitted effect of over 50% in size.
Conditions: MCF 10A DNA re-replication, Hoechst nuclear intensity, 48 h; activity, positive = re-replication: at 46.1 µM (top of the series)
Potency is the fitted concentration of half-maximal effect; tags give direction and shape of the fitted curve.

| Structure (SMILES) | Potency | activity, positive = re-replication |
| --- | --- | --- |
| CN(C)C(=O)COc1ccc(C(=O)/C=C/c2cccnc2)cc1 | inconclusive [activator, single point] |  |
| CCCn1nnc(NC(=O)/C=C/c2ccccc2)n1 | inactive |  |
| CCOC(=O)c1sc(Nc2ccc(Br)cc2)nc1C | inconclusive [activator, single point] |  |
| O=C1c2cccc3c([N+](=O)[O-])ccc(c23)C(=O)N1c1ccc(Cl)cn1 | inconclusive [activator, full curve, poor fit] |  |
| COc1ccc(NC(=O)c2cccc(N3C(=O)C4C5C=CC(C5)C4C3=O)c2)cc1Cl (configuration not stated) | inconclusive [activator, partial curve] |  |
| COc1ccc(OCc2cccc(C(=O)Nc3ccc(CN4CCCCC4)cc3)c2)cc1 | inconclusive [activator, partial curve, poor fit] |  |
| CCc1cc2c(NCc3ccco3)ncnc2s1 | inactive |  |
| Cc1cc(OC(C)C(=O)NCCCN2CCOCC2)c2c(C)c(C)c(=O)oc2c1 (configuration not stated) | inactive |  |
| COc1cc2c(cc1OC)C(c1ccccc1Cl)N(C)CC2 (configuration not stated) | inconclusive [activator, single point] |  |
| CCN(CC)CCOC(=O)c1ccc(N/C=C(/C#N)c2nc(-c3ccc4c(c3)OCO4)cs2)cc1 | active: 18.4 µM |  |
| CCc1ccc(NC(=O)C(=O)NCC2CCCN2S(=O)(=O)c2ccccc2)cc1 (configuration not stated) | inconclusive [activator, single point] |  |
| COc1cc(/C=N/n2cnnc2)ccc1OCCSc1ccc(C)cc1 | inconclusive [activator, partial curve, poor fit] |  |
| CCOC(=O)C(=O)NNc1ccc(Cl)cc1 | inconclusive [activator, partial curve, poor fit] |  |
| C=CC[C@@H](CC(=O)N[C@H](CO)Cc1ccccc1)C(=O)N[C@@H](COC(=O)[C@@H](CC=C)Cc1ccc(F)cc1)Cc1ccccc1 | inconclusive [activator, partial curve, poor fit] |  |
| O=C(CCNc1ccc(Cc2ccncc2)cc1)c1cccc([N+](=O)[O-])c1 | inconclusive [activator, single point] |  |
| COCCNC(=O)C(c1cccs1)N(Cc1cccs1)C(=O)Cn1nnc2ccccc21 (configuration not stated) | inconclusive [activator, single point] |  |
| CC1CCCCN1S(=O)(=O)c1ccc(S(=O)(=O)N(CC(=O)Nc2ccccc2)Cc2cccs2)cc1 (configuration not stated) | inconclusive [activator, partial curve] |  |
| CCNc1nc(NCC)nc(N/N=C/c2ccc(Br)cc2)n1 | inactive |  |
| CN(c1ccccc1)S(=O)(=O)c1cccc(C(=O)NCCc2c[nH]c3ccccc23)c1 | inactive |  |
| CC(C)Cn1c(N)c(C(=O)COC(=O)c2c(O)c(Cl)cc(Cl)c2Cl)c(=O)n(C)c1=O | inconclusive [activator, partial curve, poor fit] |  |
| S=c1[nH]cnc2scc(-c3ccc(Br)cc3)c12 | inconclusive [activator, partial curve, poor fit] |  |
| Cc1ccc2nc(N3C(=O)C(O)=C(C(=O)c4ccc(C)o4)C3c3ccco3)sc2c1 (configuration not stated) | active: 18.4 µM |  |
| CCOC(=O)C(NS(=O)(=O)c1ccccc1)(C(F)(F)F)P(=O)(OCC(C)C)OCC(C)C (configuration not stated) | inconclusive [activator, single point] |  |

| Structure (SMILES) | Potency | activity, positive = re-replication |
| --- | --- | --- |
| Cc1ccc(S(=O)(=O)CCC(=O)Nc2nnc(CC(C)C)s2)cc1 | inconclusive [activator, single point] |  |
| O=C(C1CCC(=O)N(C2CCCC2)C1)N1CCN(c2ccccc2Cl)CC1 (configuration not stated) | inconclusive [activator, single point] |  |
| NS(=O)(=O)c1cccc(NC(=O)CCSc2ccccc2Cl)c1 | inconclusive [activator, single point] |  |
| Cc1ccc(C(=O)N(C)CC(=O)Nc2ccc(N3CCOCC3)cc2)s1 | inconclusive [activator, single point] |  |
| CN1N=C2c3ccccc3CCC2C1c1ccc(C(F)(F)F)cc1 (configuration not stated) | inconclusive [activator, single point] |  |
| COC(=O)CCCC(=O)N1CCCC(CNS(=O)(=O)c2ccc(OC)cc2)C1 (configuration not stated) | inconclusive [activator, partial curve, poor fit] |  |
| CCN(c1cccc2ccccc12)S(=O)(=O)c1ccc(Cl)nc1 | inconclusive [activator, full curve, poor fit] |  |
| O=C(c1c[nH]c(C(=O)C(Cl)(Cl)Cl)c1)c1ccccc1Cl | inactive |  |
| Cc1cc(/C=C(\C#N)C(=O)NCc2ccco2)c(C)n1C1CCCC1 | inconclusive [activator, partial curve, poor fit] |  |
| Clc1cccc(-c2nc(NCc3cccnc3)c3ccccc3n2)c1 | inconclusive [activator, single point] |  |
| CCOC(=O)c1c(NC(=O)/C=C/C(=O)O)sc(C)c1-c1ccc(C)c(C)c1 | active: 4.11 µM |  |
| N#CC1(NC(=O)CSc2n[nH]c(-c3ccccc3)n2)CCCCC1 | inactive |  |
| O=C(NS(=O)(=O)c1ccccc1Cl)c1ccc[nH]1 |  | inconclusive: 105% [activator] |
| C(=N\n1cnnc1)/c1ccc(OCc2cccc3ccccc23)cc1 | inconclusive [activator, single point] |  |
| c1cc2c(cn1)cnc1cscc12 | inactive |  |
| COC(=O)N[C@@H]1C[C@H]2[C@@H]3CC[C@H]4C[C@@H](OC)CC[C@]4(C)[C@H]3CC[C@@]12C | inconclusive [activator, single point] |  |
| CCN(CC(=O)Nc1ccc2c(c1)OCCO2)C(=O)C1CC(=O)N(c2ccc(OC)cc2OC)C1 (configuration not stated) | inactive |  |
| Cc1nn(Cc2ccccc2)c2c1C(c1cccnc1)C(C#N)=C(N)O2 (configuration not stated) | inconclusive [activator, partial curve, poor fit] |  |
| COc1ccc(/C=C(\NC(=O)c2cccs2)C(=O)Nc2ccc(C)cc2)cc1OC | inconclusive [activator, full curve, poor fit] |  |
| O=C(NC(=S)N1CCN(c2ccccc2)CC1)c1c(F)cccc1F | inactive |  |
| O=[N+]([O-])c1nn(-c2ccc(Cl)cc2)n(O)c1=NCc1ccncc1 | inactive |  |
| COc1ccc2[nH]c(S(=O)Cc3ncc(C)c(OC)c3C)nc2n1 (configuration not stated) | inconclusive [activator, partial curve, poor fit] |  |
| CN(CC(=O)Nc1cccc(F)c1)C(=O)c1ccc(-c2ccc(Cl)cc2)o1 |  | inconclusive: 41.8% [activator] |

| Structure (SMILES) | Potency | activity, positive = re-replication |
| --- | --- | --- |
| C=CCN(c1ccccc1)S(=O)(=O)c1cccc(C(=O)Nc2nnc(SCC)s2)c1 | inconclusive [activator, single point] |  |
| CC(C)CNC(=O)c1cc(=O)[nH]c2ccc(S(=O)(=O)Nc3ccc(F)cc3)cc12 | inconclusive [activator, partial curve, poor fit] |  |
| CCN1C(=O)CC(NNC(=O)c2ccccc2)C1=O (configuration not stated) | inconclusive [activator, single point] |  |
| O=C(Nc1nnc(-c2cccnc2)o1)c1cccc(Cl)c1 | inconclusive [activator, partial curve, poor fit] |  |
| Cn1c(=O)c2c(nc(NCCNC(=O)c3ccco3)n2Cc2ccccc2)n(C)c1=O | active: 25.9 µM |  |
| O=C(CSc1nc(C2CC2)nc2ccccc12)N1CCc2ccccc21 | inconclusive [activator, partial curve, poor fit] |  |
| CCOC(=O)c1cnc2c(cnn2C)c1NCCC(O)C(F)(F)F (configuration not stated) | inactive |  |
| CC1(C)Oc2cc(N)c([N+](=O)[O-])cc2O1 | inactive |  |
| COc1ccc(CC(=O)NNC2=Nc3cccc4cccc2c34)cc1 | active: 20.6 µM |  |
| CCOC(=O)C(C(C)=O)c1c(Br)c(O)c(O)c2c(C(=O)c3ccc(C)cc3)coc12 (configuration not stated) | inconclusive [activator, full curve, poor fit] |  |
| O=C(CN1c2ccccc2Sc2ccccc21)NNC(=O)Nc1ccc(Cl)c(Cl)c1 | active: 16.4 µM |  |
| CN(C)CCNc1oc(-c2ccccc2Cl)nc1S(=O)(=O)c1ccccc1 | inactive |  |
| Cc1cc(C)c2c(N)c(C(=O)Nc3ncc(C)s3)sc2n1 | active: 9.2 µM |  |
| CCCCn1c(SCC(=O)NC2CC2)nc2ccccc2c1=O | inconclusive [activator, single point] |  |
| NNC(=O)c1ccc([N+](=O)[O-])c(CS(=O)(=O)c2ccc(Cl)cc2)c1 | inconclusive [activator, single point] |  |
| CC(=O)Nc1cccc(NC(=O)Nc2ccc(C(C)=O)cc2)c1 | inactive |  |
| O=C(CSc1ccc(Cl)cc1)N1CCN(c2ncc(C(F)(F)F)cc2Cl)CC1 | inconclusive [activator, single point] |  |
| O=C(NCCc1ccccc1)C1CCC(Cn2c(=O)c3ccccc3n(Cc3cccc(F)c3)c2=O)CC1 (configuration not stated) | inconclusive [activator, partial curve, poor fit] |  |
| COc1ccc2c(c1)C(=O)N(c1ccccc1OC)C(=O)C2(C)C | inactive |  |
| C#CCOc1ccc2c(C)cc(=O)oc2c1 | inactive |  |
| Cc1c(Nc2cc(Cl)c3nonc3c2[N+](=O)[O-])c(=O)n(-c2ccccc2)n1C | inconclusive [activator, single point] |  |

From PubChem BioAssay AID624296 (National Center for Advancing Translational Sciences (NCATS), 2012)
